The values below come from US9126931B2 (priority 2009, dated 2015).

This assay deals with Human lymphoma cell line KARPAS-299. The experiment in a line: cells. The settings on record: KARPAS-299, 96 h, read-out: Inhibitory activity on Karpas-299 cell growth IC50.
A word on the IC50: it is the concentration at which inhibition is half-maximal. On to `CC1(C)c2[nH]c3cc(C#N)ccc3c2C(=O)c2cnc(N3CCC(N4CCOCC4)CC3)c(F)c21` [AZ7-24, 4-Fluoro-5,5-dimethyl-3-(4-morpholin-4-yl-piperidine-1-yl)-11-oxo-6,11-dihydro-5H-pyrido[4,3-b]carbazole-8-carbonitrile], for which the IC50 stood at 54 nM. The figure for `COc1ccc2c(c1)C(C)(C)c1[nH]c3c(OC[C@@H](O)CO)c(C#N)ccc3c1C2=O` [Compound U10-2, 4-((S)-2,3-Dihydroxy-propoxy)-8-methoxy-6,6-dimethyl-11-oxo-6,11-dihydro-5H-benzo[b]carbazole-3-carbonitrile] is 940 nM; for `CC1(C)c2ccc(C3=CCNCC3)cc2C(=O)c2c1[nH]c1cc(C#N)ccc21` [Compound J7-10-2, 6,6-Dimethyl-11-oxo-9-(1,2,3,6-tetrahydro-pyridin-4-yl)-6,11-dihydro-5H-benzo[b]carbazole-3-carbonitrile] it is 30.3 nM. Take `CC1(C)c2cc(OCCN(CCO)CCO)ccc2C(=O)c2c1[nH]c1cc(C#N)ccc21` [Compound A8-15, 8-{2-[Bis-(2-hydroxy-ethyl)-amino]-ethoxy}-6,6-dimethyl-11-oxo-6,11-dihydro-5H-benzo[b]carbazole-3-carbonitrile]: the 50% inhibitory concentration (IC50) amounted to 232 nM. Then `CC(C)Oc1cc2c(cc1C1=CCN(C3COC3)CC1)C(=O)c1c([nH]c3cc(C#N)ccc13)C2(C)C` [Compound E5-6, 8-Isopropoxy-6,6-dimethyl-9-(1-oxetan-3-yl-1,2,3,6-tetrahydro-pyridin-4-yl)-11-oxo-6,11-dihydro-5H-benzo[b]carbazole-3-carbonitrile], with 52.7 nM; and `CC1(C)c2cc(N3CCNCC3)c(C3CC3)cc2C(=O)c2c1[nH]c1cc(C#N)ccc21` [Compound F5-15-2, 9-Cyclopropyl-6,6-dimethyl-11-oxo-8-piperazin-1-yl-6,11-dihydro-5H-benzo[b]carbazole-3-carbonitrile], with 9.8 nM; and `CN(C)S(=O)(=O)N1CCN(Cc2ccc3c(c2)C(C)(C)c2[nH]c4cc(C#N)ccc4c2C3=O)CC1` [Compound B3-36, 4-(3-Cyano-6,6-dimethyl-11-oxo-6,11-dihydro-5H-benzo[b]carbazol-8-ylmethyl)-piperazine-1-sulfonic acid dimethylamide], with 39 nM.

Take `CC1(C)c2cc(OCCO)ccc2C(=O)c2c1[nH]c1cc(C#N)ccc21` [Compound A7-12, 8-(2-Hydroxyethoxy)-6,6-dimethyl-11-oxo-6,11-dihydro-5H-benzo[b]carbazole-3-carbonitrile]: the IC50 was 112 nM. Then `CCN(CC)CCOc1ccc2c(c1)C(C)(C)c1[nH]c3cc(NC(=O)OCCOC)ccc3c1C2=O` [GT5-7, [8-(2-Diethylamino-ethoxy)-6,6-dimethyl-11-oxo-6,11-dihydro-5H-benzo[b]carbazol-3-yl]-carbamic acid 2-methoxy-ethyl ester], with 17100 nM; and `CC(C)Oc1cc2c(cc1OCC1CCN(C3CCC3)CC1)C(C)(C)c1[nH]c3cc(C#N)ccc3c1C2=O` [Compound L10-5, 8-(1-Cyclobutyl-piperidin-4-ylmethoxy)-9-isopropoxy-6,6-dimethyl-11-oxo-6,11-dihydro-5H-benzo[b]carbazole-3-carbonitrile], with 19 nM; and `CC1(C)c2cc(N3CCN(C4COC4)CC3)c(C#CCN3CCS(=O)(=O)CC3)cc2C(=O)c2c1[nH]c1cc(C#N)ccc21` [Compound F5-31, 9-[3-(1,1-Dioxo-1λ6-thiomorpholin-4-yl)-prop-1-ynyl]-6,6-dimethyl-8-(4-oxetan-3-yl-piperazin-1-yl)-11-oxo-6,11-dihydro-5H-benzo[b]carbazole-3-carbonitrile], with 72.7 nM. The figure for `CC(C)Oc1cc2c(cc1OC1CCCN(C(C)C)C1)C(C)(C)c1[nH]c3cc(C#N)ccc3c1C2=O` (stereo not shown) [Compound L10-8, 9-Isopropoxy-8-(1-isopropyl-piperidin-3-yloxy)-6,6-dimethyl-11-oxo-6,11-dihydro-5H-benzo[b]carbazole-3-carbonitrile] is 24 nM; for `CC1(C)c2cc(O[C@@H]3CCOC3)ccc2C(=O)c2c1[nH]c1cc(Br)ccc21` [Compound T1-1, 3-Bromo-6,6-dimethyl-8-[(R)-(tetrahydro-furan-3-yl)oxy]-5,6-dihydro-benzo[b]carbazol-11-one] it is 1870 nM; for `CC(=O)OC[C@H]1OC(C)(C)O[C@@H]1COc1ccc2c(c1)C(C)(C)c1[nH]c3cc(Br)ccc3c1C2=O` [Compound T22-1-2, Acetic acid (3R,4R)-5-(3-bromo-6,6-dimethyl-11-oxo-6,11-dihydro-5H-benzo[b]carbazol-8-yloxymethyl)-2,2-dimethyl[1,3]dioxolan-4-ylmethyl ester] it is 1780 nM. The figure for `CC1(C)c2cc(N3CCC(N4CCCC4)CC3)ccc2C(=O)c2c1[nH]c1ncccc21` [Compound G6, 10,10-Dimethyl-8-(4-pyrrolidin-1-yl-piperidin-1-yl)-10,11-dihydro-1,11-diaza-benzo[b]fluoren-5-one] is 168 nM; for `CC1(C)c2cc(O)c(-c3ccc(O)cc3F)cc2C(=O)c2c1[nH]c1cc(Br)ccc21` [Compound T27-2, 3-Bromo-9-(2-fluoro-4-hydroxy-phenyl)-8-hydroxy-6,6-dimethyl-5,6-dihydro-benzo[b]carbazol-11-one] it is 997 nM. Consider `CSCCOc1ccc2c(c1)C(C)(C)c1c(c3ccc(C#N)cc3n1CCSC)C2=O` [Compound A7-5, 6,6-Dimethyl-8-(2-methylsulfanyl-ethoxy)-5-(2-methylsulfanyl-ethyl)-11-oxo-6,11-dihydro-5H-benzo[b]carbazole-3-carbonitrile], for which the IC50 amounted to 627 nM. Turning to `CCN(CC)CCOc1ccc2c(c1)C(C)(C)c1[nH]c3cc(N(C)C(=O)c4cccc(C(F)(F)F)c4)ccc3c1C2=O` [GT5-17, N-[8-(2-Diethylamino-ethoxy)-6,6-dimethyl-11-oxo-6,11-dihydro-5H-benzo[b]carbazol-3-yl]-N methyl-3-trifluoromethyl-benzamide], the IC50 is 2360 nM. Then `CC1(C)c2cc(OCCN3CCC(C(N)=O)CC3)ccc2C(=O)c2c1[nH]c1cc(C#N)ccc21` [Compound A8-16, 1-[2-(3-Cyano-6,6-dimethyl-11-oxo-6,11-dihydro-5H-benzo[b]carbazol-8-yloxy)-ethyl]-piperidine-4-carboxylic acid amide], with 34.5 nM; and `C#Cc1cc2c(cc1N1CCC(N3CCCC3)CC1)C(C)(C)c1[nH]c3cc(C#N)ccc3c1C2=O` [Compound F5-4, 9-Ethynyl-6,6-dimethyl-11-oxo-8-(4-pyrrolidin-1-yl-piperidin-1-yl)-6,11-dihydro-5H-benzo[b]carbazole-3-carbonitrile], with 1.8 nM. The figure for `CC1(C)c2cc(OC3CCOC34CCN(S(C)(=O)=O)CC4)ccc2C(=O)c2c1[nH]c1cc(Br)ccc21` (stereo not shown) [Compound T16-3, 3-Bromo-8-(8-methanesulfonyl-1-oxa-8-aza-spiro[4.5]decan-4-yloxy)-6,6-dimethyl-5,6-dihydro-benzo[b]carbazol-11-one] is 2250 nM; for `CC#Cc1cc2c(cc1N1CCN(C3COC3)CC1)C(C)(C)c1[nH]c3cc(C#N)ccc3c1C2=O` [Compound F5-22, 6,6-Dimethyl-8-(4-oxetan-3-yl-piperazin-1-yl)-11-oxo-9-prop-1-ynyl-6,11-dihydro-5H-benzo[b]carbazole-3-carbonitrile] it is 6.6 nM; for `CC1(C)c2cc(N3CCN(CC4CC4)CC3)c(Br)cc2C(=O)c2c1[nH]c1cc(C#N)ccc21` [Compound F4-8, 9-Bromo-8-(4-cyclopropylmethyl-piperazin-1-yl)-6,6-dimethyl-11-oxo-6,11-dihydro-5H-benzo[b]carbazole-3-carbonitrile] it is 22.1 nM. On to `CC(C)N1CCC(c2ccc3c(c2)C(C)(C)c2[nH]c4cc(C#N)ccc4c2C3=O)CC1` [Compound B4-7, 8-(1-Isopropyl-piperidin-4-yl)-6,6-dimethyl-11-oxo-6,11-dihydro-5H-benzo[b]carbazole-3-carbonitrile], for which the IC50 was determined as 10.5 nM.

For `C#Cc1cc2c(cc1N1CCN(C3CCC3)CC1)C(C)(C)c1[nH]c3cc(C#N)ccc3c1C2=O` [Compound F5-43, 8-(4-Cyclobutyl-piperazin-1-yl)-9-ethynyl-6,6-dimethyl-11-oxo-6,11-dihydro-5H-benzo[b]carbazole-3-carbonitrile], the IC50 came to 8.6 nM. As for `CC(C)(C)OC(=O)NCCOc1ccc2c(c1)C(C)(C)c1[nH]c3cc(C#N)ccc3c1C2=O` [Compound A7-3, [2-(3-Cyano-6,6-dimethyl-11-oxo-6,11-dihydro-5H-benzo[b]carbazol-8-yloxy)-ethyl]-carbamic acid tert-butyl ester], the IC50 was found to be 114 nM. Consider `COCCN1CCN(C(=O)c2ccc3c(c2)C(C)(C)c2[nH]c4cc(C#N)ccc4c2C3=O)CC1` [Compound B3-30, 8-[4-(2-Methoxy-ethyl)-piperazin-1-carbonyl]-6,6-dimethyl-11-oxo-6,11-dihydro-5H-benzo[b]carbazole-3-carbonitrile], for which the IC50 was determined as 228 nM. The figure for `CCN(CC)CCOc1ccc2c(c1)C(C)(C)c1[nH]c3cc(NC(=O)Nc4cccc(C(F)(F)F)c4)ccc3c1C2=O` [GT5-11, 1-[8-(2-Diethylamino-ethoxy)-6,6-dimethyl-11-oxo-6,11-dihydro-5H-benzo[b]carbazol-3-yl]-3-(3-trifluoromethyl-phenyl)-urea] is 1960 nM; for `C#Cc1cc2c(cc1N1CCN(C3COC3)CC1)C(C)(C)c1[nH]c3cc(C#N)ccc3c1C2=O` [Compound F5-16, 9-Ethynyl-6,6-dimethyl-8-(4-oxetan-3-yl-piperazin-1-yl)-11-oxo-6,11-dihydro-5H-benzo[b]carbazole-3-carbonitrile] it is 4.2 nM. The figure for `CN1CCN(S(=O)(=O)NCCOc2ccc3c(c2)C(C)(C)c2[nH]c4cc(C#N)ccc4c2C3=O)CC1` [Compound A8-19, 4-Methyl-piperazine-1-sulfonic acid[2-(3-cyano-6,6-dimethyl-11-oxo-6,11-dihydro-5H-benzo[b]carbazol-8-yloxy)-ethyl]-amide] is 72.6 nM; for `CCc1cc2c(cc1N1CCC(N3CCOCC3)CC1)C(C)(C)c1[nH]c3cc(C#N)ccc3c1C2=O` [Compound F6-20, 9-Ethyl-6,6-dimethyl-8-(4-morpholin-4-yl-piperidin-1-yl)-11-oxo-6,11-dihydro-5H-benzo[b]carbazole-3-carbonitrile] it is 9.3 nM.
